# In publication PMC3688683, “The N-Terminal Domains of Vps3 and Vps8 Are Critical for Localization and Function of the CORVET Tethering Complex on Endosomes” (PLoS ONE, 2013):
# Results are given in words; binding and its absence hold for the method and conditions named. For some assays here: In cells and extracts the contact can be indirect. Some results given as binding are weak or reduced against the parent protein; the word gives no strength. For some assays here: Where a sequence is shown, tags or fusion partners need not be part of it.
# T1: Vps21 (yeast two-hybrid bait) (yeast) (UniProt P36017)
# T1 sequence: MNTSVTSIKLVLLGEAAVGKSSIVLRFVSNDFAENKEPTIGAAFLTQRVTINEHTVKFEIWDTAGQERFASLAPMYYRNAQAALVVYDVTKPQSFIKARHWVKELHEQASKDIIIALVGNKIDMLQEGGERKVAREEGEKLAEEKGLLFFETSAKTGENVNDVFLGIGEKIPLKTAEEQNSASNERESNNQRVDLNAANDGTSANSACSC
# T2: Vps8-TAP (full-length Vps8, C-terminal TAP tag) (yeast (genomic locus of BY4741/BY4733 strains)) (UniProt P39702)
# T2 sequence: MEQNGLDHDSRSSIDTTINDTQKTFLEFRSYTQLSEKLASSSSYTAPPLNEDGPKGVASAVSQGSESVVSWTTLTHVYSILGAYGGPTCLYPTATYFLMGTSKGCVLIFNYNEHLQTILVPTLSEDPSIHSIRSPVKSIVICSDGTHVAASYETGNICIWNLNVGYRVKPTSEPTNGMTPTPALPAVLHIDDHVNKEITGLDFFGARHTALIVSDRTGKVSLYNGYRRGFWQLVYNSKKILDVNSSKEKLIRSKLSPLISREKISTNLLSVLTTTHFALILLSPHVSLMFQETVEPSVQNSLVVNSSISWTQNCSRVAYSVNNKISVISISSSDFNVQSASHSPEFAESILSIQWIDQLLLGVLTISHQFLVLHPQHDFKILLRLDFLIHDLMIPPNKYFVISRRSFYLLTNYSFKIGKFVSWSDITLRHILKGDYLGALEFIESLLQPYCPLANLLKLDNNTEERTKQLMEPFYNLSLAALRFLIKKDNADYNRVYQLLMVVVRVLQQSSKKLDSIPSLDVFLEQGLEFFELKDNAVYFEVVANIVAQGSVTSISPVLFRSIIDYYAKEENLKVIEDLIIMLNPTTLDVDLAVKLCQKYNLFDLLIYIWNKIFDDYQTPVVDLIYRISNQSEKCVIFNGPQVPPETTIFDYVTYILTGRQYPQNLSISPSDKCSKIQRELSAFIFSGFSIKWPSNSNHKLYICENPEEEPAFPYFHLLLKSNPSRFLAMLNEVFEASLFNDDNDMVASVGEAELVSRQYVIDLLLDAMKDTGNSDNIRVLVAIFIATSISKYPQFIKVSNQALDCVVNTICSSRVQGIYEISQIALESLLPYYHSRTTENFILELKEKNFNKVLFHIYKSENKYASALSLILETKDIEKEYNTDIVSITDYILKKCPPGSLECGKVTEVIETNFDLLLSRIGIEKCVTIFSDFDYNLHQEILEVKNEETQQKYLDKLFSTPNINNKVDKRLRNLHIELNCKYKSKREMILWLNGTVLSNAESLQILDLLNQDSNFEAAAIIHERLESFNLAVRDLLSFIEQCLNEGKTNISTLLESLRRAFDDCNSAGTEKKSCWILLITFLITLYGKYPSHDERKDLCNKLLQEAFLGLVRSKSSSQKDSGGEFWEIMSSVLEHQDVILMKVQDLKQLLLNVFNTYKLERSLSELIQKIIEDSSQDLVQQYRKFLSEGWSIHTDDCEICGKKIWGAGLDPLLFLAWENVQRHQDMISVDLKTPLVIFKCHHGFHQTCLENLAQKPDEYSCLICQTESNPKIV
# T3: Vps8ΔN-TAP (C-terminal domain of Vps8, from residue 451, C-terminal TAP tag) (yeast (genomic locus of BY4741/BY4733 strains)) (UniProt P39702)
# T3 sequence: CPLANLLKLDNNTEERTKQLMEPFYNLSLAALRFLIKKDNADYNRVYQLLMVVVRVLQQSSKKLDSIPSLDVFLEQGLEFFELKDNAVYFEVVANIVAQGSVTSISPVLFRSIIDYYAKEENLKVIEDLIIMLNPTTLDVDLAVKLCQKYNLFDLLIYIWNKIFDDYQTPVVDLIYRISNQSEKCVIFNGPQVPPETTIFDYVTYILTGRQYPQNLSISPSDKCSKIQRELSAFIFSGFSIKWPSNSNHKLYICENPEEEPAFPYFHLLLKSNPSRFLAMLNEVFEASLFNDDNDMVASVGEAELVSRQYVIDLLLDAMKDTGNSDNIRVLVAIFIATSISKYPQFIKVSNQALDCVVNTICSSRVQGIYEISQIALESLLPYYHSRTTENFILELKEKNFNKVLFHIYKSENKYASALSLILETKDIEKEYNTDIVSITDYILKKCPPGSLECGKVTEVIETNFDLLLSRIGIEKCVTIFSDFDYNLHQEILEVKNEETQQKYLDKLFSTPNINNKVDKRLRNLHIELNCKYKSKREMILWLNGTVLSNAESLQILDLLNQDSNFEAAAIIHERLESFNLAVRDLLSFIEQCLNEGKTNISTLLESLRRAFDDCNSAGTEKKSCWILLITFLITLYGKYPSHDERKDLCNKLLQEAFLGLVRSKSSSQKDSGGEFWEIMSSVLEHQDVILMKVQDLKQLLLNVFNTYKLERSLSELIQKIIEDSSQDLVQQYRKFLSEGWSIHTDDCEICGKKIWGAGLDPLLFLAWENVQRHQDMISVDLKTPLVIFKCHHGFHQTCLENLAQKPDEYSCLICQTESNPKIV
# What was measured:
# [1] = biological target: T1, Vps21 (yeast two-hybrid bait) (yeast); test: two-hybrid; Vps21 as bait, Vps8 constructs as preys (vectors pACT2 and pFBT9) in strain PJ69-4A; growth on TDO (-Leu -Trp -His) and QDO (also -Ade) plates; QDO strong, TDO only weak interaction
# [2] = biological target: T2, Vps8-TAP (full-length Vps8, C-terminal TAP tag) (yeast (genomic locus of BY4741/BY4733 strains)); test: co-IP; small-scale TAP purification: C-terminally TAP-tagged Vps8 or Vps3 (full-length or truncated) captured from yeast lysate (50 mM HEPES/KOH pH 7.4, 300 mM NaCl, 0.15% NP-40, 2 mM MgCl2, 1 mM DTT) on IgG beads, 1.5 h at 4°C; eluted with glycine pH 2.5 or TEV protease; Western blot with anti-Cbp, anti-HA, anti-Vps11; also with overproduced Vps8ΔN and from vps21Δ and vps21Δ ypt52Δ ypt53Δ ypt7Δ strains
# [3] = biological target: T3, Vps8ΔN-TAP (C-terminal domain of Vps8, from residue 451, C-terminal TAP tag) (yeast (genomic locus of BY4741/BY4733 strains)); test: as above
Binder,binding [1],binding [2],binding [3]
"Vps8, wild type (yeast two-hybrid prey) (protein, UniProt P39702 1-1274) MEQNGLDHDSRSSIDTTINDTQKTFLEFRSYTQLSEKLASSSSYTAPPLNEDGPKGVASAVSQGSESVVSWTTLTHVYSILGAYGGPTCLYPTATYFLMGTSKGCVLIFNYNEHLQTILVPTLSEDPSIHSIRSPVKSIVICSDGTHVAASYETGNICIWNLNVGYRVKPTSEPTNGMTPTPALPAVLHIDDHVNKEITGLDFFGARHTALIVSDRTGKVSLYNGYRRGFWQLVYNSKKILDVNSSKEKLIRSKLSPLISREKISTNLLSVLTTTHFALILLSPHVSLMFQETVEPSVQNSLVVNSSISWTQNCSRVAYSVNNKISVISISSSDFNVQSASHSPEFAESILSIQWIDQLLLGVLTISHQFLVLHPQHDFKILLRLDFLIHDLMIPPNKYFVISRRSFYLLTNYSFKIGKFVSWSDITLRHILKGDYLGALEFIESLLQPYCPLANLLKLDNNTEERTKQLMEPFYNLSLAALRFLIKKDNADYNRVYQLLMVVVRVLQQSSKKLDSIPSLDVFLEQGLEFFELKDNAVYFEVVANIVAQGSVTSISPVLFRSIIDYYAKEENLKVIEDLIIMLNPTTLDVDLAVKLCQKYNLFDLLIYIWNKIFDDYQTPVVDLIYRISNQSEKCVIFNGPQVPPETTIFDYVTYILTGRQYPQNLSISPSDKCSKIQRELSAFIFSGFSIKWPSNSNHKLYICENPEEEPAFPYFHLLLKSNPSRFLAMLNEVFEASLFNDDNDMVASVGEAELVSRQYVIDLLLDAMKDTGNSDNIRVLVAIFIATSISKYPQFIKVSNQALDCVVNTICSSRVQGIYEISQIALESLLPYYHSRTTENFILELKEKNFNKVLFHIYKSENKYASALSLILETKDIEKEYNTDIVSITDYILKKCPPGSLECGKVTEVIETNFDLLLSRIGIEKCVTIFSDFDYNLHQEILEVKNEETQQKYLDKLFSTPNINNKVDKRLRNLHIELNCKYKSKREMILWLNGTVLSNAESLQILDLLNQDSNFEAAAIIHERLESFNLAVRDLLSFIEQCLNEGKTNISTLLESLRRAFDDCNSAGTEKKSCWILLITFLITLYGKYPSHDERKDLCNKLLQEAFLGLVRSKSSSQKDSGGEFWEIMSSVLEHQDVILMKVQDLKQLLLNVFNTYKLERSLSELIQKIIEDSSQDLVQQYRKFLSEGWSIHTDDCEICGKKIWGAGLDPLLFLAWENVQRHQDMISVDLKTPLVIFKCHHGFHQTCLENLAQKPDEYSCLICQTESNPKIV",binds,–,–
"Vps3ΔN-3HA (Vps3 from residue 427, C-terminal 3xHA tag) (domain or fragment, UniProt P23643 427-1011) EFKEKIFNKLRLEPLTHSDNKFRIERERAFVEESYEEKTSLIVYNNLGIHLLVPTPMVLRFTSCEESEIDNIEDQLKKLAKKDLTKFEHIEAKYLMSLLLFLMTLHYDHIEDEVMKKWCDFSDKVDIRILFYMFGWKVYSEIWCFHGLINIVERLKSLKLTNKCENILKMLLMMKNELKKKNKTGLLTNDFDDIMKTIDITLFKLRLEKKETITVDMFERESYDEIIREINLHDDKLPRIELLIEIYKEKGEYLKALNLLREAGDYISLVSFIEENLKKLPEDYIKERIADDLLLTLKQGDENTEECAIKKVLKILDMACINKNDFLNKIPAEETSLKVSFIEQLGVQNSNDSKFLFNYYLAKLREIINQSNIWSILGDFIKEYKDDFAYDKTDITNFIHIKLKHSLQCENFSKYYEKCENLKSENEKDDEFINFTFDEISKIDKEHILTLLFFPNELTNWVSSEELLKIYLSFNDFRSVEKYIGKQNLVAVMKQYLDISSLNYSVELVTNLLQRNFELLDDTDIQLKILETIPSVFPVQTISELLLKVLIKYQEKKEESNLRKCLLKNQISISDELSRNFDSQG",–,binds,binds

# Continued, values first:
binding [1],binding [2],binding [3],Binder
no binding,–,–,"Vps8ΔC (yeast two-hybrid prey) (domain or fragment, UniProt P39702 1-450) MEQNGLDHDSRSSIDTTINDTQKTFLEFRSYTQLSEKLASSSSYTAPPLNEDGPKGVASAVSQGSESVVSWTTLTHVYSILGAYGGPTCLYPTATYFLMGTSKGCVLIFNYNEHLQTILVPTLSEDPSIHSIRSPVKSIVICSDGTHVAASYETGNICIWNLNVGYRVKPTSEPTNGMTPTPALPAVLHIDDHVNKEITGLDFFGARHTALIVSDRTGKVSLYNGYRRGFWQLVYNSKKILDVNSSKEKLIRSKLSPLISREKISTNLLSVLTTTHFALILLSPHVSLMFQETVEPSVQNSLVVNSSISWTQNCSRVAYSVNNKISVISISSSDFNVQSASHSPEFAESILSIQWIDQLLLGVLTISHQFLVLHPQHDFKILLRLDFLIHDLMIPPNKYFVISRRSFYLLTNYSFKIGKFVSWSDITLRHILKGDYLGALEFIESLLQPY"
binds weakly,–,–,"Vps8ΔN (yeast two-hybrid prey) (domain or fragment, UniProt P39702 451-1274) CPLANLLKLDNNTEERTKQLMEPFYNLSLAALRFLIKKDNADYNRVYQLLMVVVRVLQQSSKKLDSIPSLDVFLEQGLEFFELKDNAVYFEVVANIVAQGSVTSISPVLFRSIIDYYAKEENLKVIEDLIIMLNPTTLDVDLAVKLCQKYNLFDLLIYIWNKIFDDYQTPVVDLIYRISNQSEKCVIFNGPQVPPETTIFDYVTYILTGRQYPQNLSISPSDKCSKIQRELSAFIFSGFSIKWPSNSNHKLYICENPEEEPAFPYFHLLLKSNPSRFLAMLNEVFEASLFNDDNDMVASVGEAELVSRQYVIDLLLDAMKDTGNSDNIRVLVAIFIATSISKYPQFIKVSNQALDCVVNTICSSRVQGIYEISQIALESLLPYYHSRTTENFILELKEKNFNKVLFHIYKSENKYASALSLILETKDIEKEYNTDIVSITDYILKKCPPGSLECGKVTEVIETNFDLLLSRIGIEKCVTIFSDFDYNLHQEILEVKNEETQQKYLDKLFSTPNINNKVDKRLRNLHIELNCKYKSKREMILWLNGTVLSNAESLQILDLLNQDSNFEAAAIIHERLESFNLAVRDLLSFIEQCLNEGKTNISTLLESLRRAFDDCNSAGTEKKSCWILLITFLITLYGKYPSHDERKDLCNKLLQEAFLGLVRSKSSSQKDSGGEFWEIMSSVLEHQDVILMKVQDLKQLLLNVFNTYKLERSLSELIQKIIEDSSQDLVQQYRKFLSEGWSIHTDDCEICGKKIWGAGLDPLLFLAWENVQRHQDMISVDLKTPLVIFKCHHGFHQTCLENLAQKPDEYSCLICQTESNPKIV"
